According to paper PMC6156606:
These are yes or no findings as the source states them, for the method shown. In cells and extracts the contact can be indirect. Some results given as binding are weak or reduced against the parent protein; the word gives no strength. For some of these results: Where a sequence is shown, tags or fusion partners need not be part of it.

By UniProt entry, the sequences of proteins in these tests, tags left out.
UniProt Q9UI95: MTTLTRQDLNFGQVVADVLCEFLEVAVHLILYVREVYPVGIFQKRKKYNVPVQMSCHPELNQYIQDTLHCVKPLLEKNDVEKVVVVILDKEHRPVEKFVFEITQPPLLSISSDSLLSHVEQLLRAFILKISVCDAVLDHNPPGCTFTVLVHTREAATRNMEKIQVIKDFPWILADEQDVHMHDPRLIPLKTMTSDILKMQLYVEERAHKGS
UniProt Q5UIP0: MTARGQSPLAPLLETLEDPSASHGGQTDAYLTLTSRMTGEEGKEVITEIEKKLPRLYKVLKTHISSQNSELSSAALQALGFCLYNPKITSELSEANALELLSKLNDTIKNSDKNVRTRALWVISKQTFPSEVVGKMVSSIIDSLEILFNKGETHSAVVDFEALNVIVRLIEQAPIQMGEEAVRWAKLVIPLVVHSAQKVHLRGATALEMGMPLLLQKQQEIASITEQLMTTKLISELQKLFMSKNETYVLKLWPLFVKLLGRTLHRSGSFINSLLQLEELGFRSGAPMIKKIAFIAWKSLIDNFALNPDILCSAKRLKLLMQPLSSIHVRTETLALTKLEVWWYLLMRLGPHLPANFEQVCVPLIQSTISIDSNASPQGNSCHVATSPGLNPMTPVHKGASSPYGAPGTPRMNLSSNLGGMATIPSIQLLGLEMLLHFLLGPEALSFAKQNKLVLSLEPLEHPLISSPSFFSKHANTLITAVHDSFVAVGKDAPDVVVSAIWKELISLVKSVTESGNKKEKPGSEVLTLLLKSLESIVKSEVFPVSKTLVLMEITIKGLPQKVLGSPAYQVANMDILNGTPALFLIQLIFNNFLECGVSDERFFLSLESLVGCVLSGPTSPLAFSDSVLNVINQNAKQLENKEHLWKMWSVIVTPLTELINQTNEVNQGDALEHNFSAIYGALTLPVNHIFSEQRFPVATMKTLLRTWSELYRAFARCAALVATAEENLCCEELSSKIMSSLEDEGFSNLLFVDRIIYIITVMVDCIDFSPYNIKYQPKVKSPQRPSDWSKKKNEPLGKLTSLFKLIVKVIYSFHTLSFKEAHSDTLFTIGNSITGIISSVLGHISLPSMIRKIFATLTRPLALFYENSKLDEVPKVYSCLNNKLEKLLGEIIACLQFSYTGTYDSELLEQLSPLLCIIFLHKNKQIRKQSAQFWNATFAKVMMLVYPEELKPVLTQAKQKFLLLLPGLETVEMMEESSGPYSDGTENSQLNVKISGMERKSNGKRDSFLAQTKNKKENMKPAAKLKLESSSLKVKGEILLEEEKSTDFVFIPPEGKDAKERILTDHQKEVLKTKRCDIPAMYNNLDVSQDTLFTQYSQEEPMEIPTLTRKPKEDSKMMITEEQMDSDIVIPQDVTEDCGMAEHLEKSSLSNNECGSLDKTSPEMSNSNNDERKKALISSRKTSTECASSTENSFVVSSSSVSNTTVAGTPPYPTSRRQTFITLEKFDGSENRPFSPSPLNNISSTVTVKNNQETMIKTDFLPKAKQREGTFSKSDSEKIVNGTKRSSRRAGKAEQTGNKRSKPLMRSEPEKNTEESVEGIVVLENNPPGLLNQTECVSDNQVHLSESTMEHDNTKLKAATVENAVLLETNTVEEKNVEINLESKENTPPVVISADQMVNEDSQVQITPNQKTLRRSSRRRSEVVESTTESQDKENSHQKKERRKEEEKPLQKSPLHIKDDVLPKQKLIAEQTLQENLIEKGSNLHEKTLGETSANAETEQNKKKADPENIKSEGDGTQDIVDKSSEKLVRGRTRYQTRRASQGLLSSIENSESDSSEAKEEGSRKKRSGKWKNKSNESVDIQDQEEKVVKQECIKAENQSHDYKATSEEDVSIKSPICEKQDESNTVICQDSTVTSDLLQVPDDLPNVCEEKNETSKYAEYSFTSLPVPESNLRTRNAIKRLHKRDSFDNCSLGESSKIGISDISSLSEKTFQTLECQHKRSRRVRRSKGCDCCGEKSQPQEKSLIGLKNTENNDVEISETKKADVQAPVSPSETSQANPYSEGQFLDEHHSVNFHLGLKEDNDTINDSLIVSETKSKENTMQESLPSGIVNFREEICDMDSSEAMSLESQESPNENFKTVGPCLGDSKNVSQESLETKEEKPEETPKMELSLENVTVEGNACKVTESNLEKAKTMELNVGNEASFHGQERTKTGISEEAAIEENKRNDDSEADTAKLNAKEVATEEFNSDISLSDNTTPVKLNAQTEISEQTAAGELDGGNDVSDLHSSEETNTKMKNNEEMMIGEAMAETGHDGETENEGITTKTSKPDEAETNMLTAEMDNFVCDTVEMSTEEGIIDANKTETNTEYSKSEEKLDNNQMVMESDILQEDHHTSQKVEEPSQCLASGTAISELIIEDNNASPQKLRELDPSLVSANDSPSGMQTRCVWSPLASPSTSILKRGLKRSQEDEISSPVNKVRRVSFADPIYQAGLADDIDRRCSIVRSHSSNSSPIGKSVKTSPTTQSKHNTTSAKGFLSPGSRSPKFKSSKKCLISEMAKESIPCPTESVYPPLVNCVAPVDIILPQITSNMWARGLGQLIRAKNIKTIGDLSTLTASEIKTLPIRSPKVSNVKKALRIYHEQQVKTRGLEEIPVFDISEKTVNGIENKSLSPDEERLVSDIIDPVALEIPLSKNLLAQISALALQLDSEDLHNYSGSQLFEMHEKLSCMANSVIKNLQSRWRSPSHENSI

Assays:
[1] = target: T1, MBP–FAM35A (human) (UniProt Q86V20); assay: pull-down; MBP- and GST-pulldown with recombinant proteins; bait detected by Coomassie blue staining, prey by immunoblotting
T1 sequence: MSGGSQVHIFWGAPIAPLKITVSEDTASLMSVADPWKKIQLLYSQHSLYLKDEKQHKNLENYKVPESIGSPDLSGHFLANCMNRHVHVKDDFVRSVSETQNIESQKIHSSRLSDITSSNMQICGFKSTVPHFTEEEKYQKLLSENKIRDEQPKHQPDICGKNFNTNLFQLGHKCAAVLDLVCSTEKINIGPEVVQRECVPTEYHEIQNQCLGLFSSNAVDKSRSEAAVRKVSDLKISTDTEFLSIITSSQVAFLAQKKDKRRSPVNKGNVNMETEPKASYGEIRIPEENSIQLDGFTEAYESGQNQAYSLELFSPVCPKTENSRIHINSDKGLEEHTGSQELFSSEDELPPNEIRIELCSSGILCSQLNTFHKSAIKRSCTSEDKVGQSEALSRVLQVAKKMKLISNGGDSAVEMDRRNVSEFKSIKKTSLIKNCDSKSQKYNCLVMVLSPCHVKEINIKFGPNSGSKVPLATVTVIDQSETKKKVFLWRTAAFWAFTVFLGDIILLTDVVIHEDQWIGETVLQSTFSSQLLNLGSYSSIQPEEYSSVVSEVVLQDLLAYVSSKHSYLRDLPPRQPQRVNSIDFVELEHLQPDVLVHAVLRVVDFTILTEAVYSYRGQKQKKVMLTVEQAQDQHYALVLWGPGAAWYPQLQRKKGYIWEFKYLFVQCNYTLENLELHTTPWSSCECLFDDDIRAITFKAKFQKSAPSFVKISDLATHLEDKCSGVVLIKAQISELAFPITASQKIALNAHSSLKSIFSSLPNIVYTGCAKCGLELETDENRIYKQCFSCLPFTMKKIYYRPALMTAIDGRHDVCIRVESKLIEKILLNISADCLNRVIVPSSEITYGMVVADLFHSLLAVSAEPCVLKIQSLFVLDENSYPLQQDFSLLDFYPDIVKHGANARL

[2] = target: T2, FLAG-tagged FAM35A (human) (UniProt Q86V20); assay: co-IP; FLAG-tagged bait transiently expressed in HEK293 suspension cells; anti-Flag M2 agarose; immunoblot of the eluate; IPs with or without 100 μg/ml EtBr
T2 sequence: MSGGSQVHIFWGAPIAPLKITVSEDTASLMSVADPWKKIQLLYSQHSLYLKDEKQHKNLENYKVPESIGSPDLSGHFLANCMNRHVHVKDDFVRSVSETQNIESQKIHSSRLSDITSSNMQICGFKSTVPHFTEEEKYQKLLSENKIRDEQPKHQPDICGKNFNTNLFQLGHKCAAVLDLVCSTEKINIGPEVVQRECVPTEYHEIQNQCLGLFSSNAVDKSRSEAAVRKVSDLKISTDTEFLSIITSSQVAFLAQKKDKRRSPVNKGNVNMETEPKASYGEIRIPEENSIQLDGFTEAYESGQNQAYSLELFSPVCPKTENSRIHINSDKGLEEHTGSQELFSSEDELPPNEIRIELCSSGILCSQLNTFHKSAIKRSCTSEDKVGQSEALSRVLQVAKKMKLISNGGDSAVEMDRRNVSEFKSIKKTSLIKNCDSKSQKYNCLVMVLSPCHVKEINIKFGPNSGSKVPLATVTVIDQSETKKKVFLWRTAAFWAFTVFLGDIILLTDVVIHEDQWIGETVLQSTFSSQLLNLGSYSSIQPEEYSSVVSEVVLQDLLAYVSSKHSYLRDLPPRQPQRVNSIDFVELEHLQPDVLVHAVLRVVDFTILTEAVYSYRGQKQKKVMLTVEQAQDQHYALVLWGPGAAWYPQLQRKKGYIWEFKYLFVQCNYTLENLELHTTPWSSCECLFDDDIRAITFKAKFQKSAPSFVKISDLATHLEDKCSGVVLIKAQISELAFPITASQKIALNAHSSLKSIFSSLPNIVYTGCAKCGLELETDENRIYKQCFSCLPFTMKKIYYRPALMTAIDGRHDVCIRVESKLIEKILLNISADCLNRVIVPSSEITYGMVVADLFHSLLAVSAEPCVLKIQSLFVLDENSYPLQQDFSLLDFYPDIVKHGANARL

[3] = target: FLAG-REV7 (human) (UniProt Q9UI95); assay: as above
[4] = target: T3, FLAG-tagged C20ORF196 (human) (UniProt Q8IYI0); assay: as above
T3 sequence: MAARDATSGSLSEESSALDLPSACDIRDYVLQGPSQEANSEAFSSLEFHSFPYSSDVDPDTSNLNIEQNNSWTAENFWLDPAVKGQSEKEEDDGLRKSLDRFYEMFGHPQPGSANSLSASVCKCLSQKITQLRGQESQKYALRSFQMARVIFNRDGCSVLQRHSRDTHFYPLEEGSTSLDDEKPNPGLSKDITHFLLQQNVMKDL

[5] = target: T4, MBP–FAM35A_RBD (human) (UniProt Q86V20); assay: pull-down; MBP–FAM35A_RBD expressed in HEK293 suspension cells; NTEN lysate on amylose resin 4 h at 4 °C; eluted with maltose
T4 sequence: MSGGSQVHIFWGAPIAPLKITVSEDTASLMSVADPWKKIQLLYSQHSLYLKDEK

[6] = target: GST–REV7 (human) (UniProt Q9UI95); assay: pull-down; MBP- and GST-pulldown with recombinant proteins; bait detected by Coomassie blue staining, prey by immunoblotting

| binding [1] | binding [2] | binding [3] | binding [4] | binding [5] | binding [6] | Molecule |
| --- | --- | --- | --- | --- | --- | --- |
| binds | – | – | – | – | – | REV7 (recombinant) (from UniProt Q9UI95 1-211) |
| – | binds | binds | binds | – | – | RIF1 (from UniProt Q5UIP0 1-2472) |
| – | binds | – | binds | binds | – | REV7 (from UniProt Q9UI95 1-211) |
| – | – | binds | binds | – | – | FAM35A (protein, UniProt Q86V20-2 1-904) MSGGSQVHIFWGAPIAPLKITVSEDTASLMSVADPWKKIQLLYSQHSLYLKDEKQHKNLENYKVPESIGSPDLSGHFLANCMNRHVHVKDDFVRSVSETQNIESQKIHSSRLSDITSSNMQICGFKSTVPHFTEEEKYQKLLSENKIRDEQPKHQPDICGKNFNTNLFQLGHKCAAVLDLVCSTEKINIGPEVVQRECVPTEYHEIQNQCLGLFSSNAVDKSRSEAAVRKVSDLKISTDTEFLSIITSSQVAFLAQKKDKRRSPVNKGNVNMETEPKASYGEIRIPEENSIQLDGFTEAYESGQNQAYSLELFSPVCPKTENSRIHINSDKGLEEHTGSQELFSSEDELPPNEIRIELCSSGILCSQLNTFHKSAIKRSCTSEDKVGQSEALSRVLQVAKKMKLISNGGDSAVEMDRRNVSEFKSIKKTSLIKNCDSKSQKYNCLVMVLSPCHVKEINIKFGPNSGSKVPLATVTVIDQSETKKKVFLWRTAAFWAFTVFLGDIILLTDVVIHEDQWIGETVLQSTFSSQLLNLGSYSSIQPEEYSSVVSEVVLQDLLAYVSSKHSYLRDLPPRQPQRVNSIDFVELEHLQPDVLVHAVLRVVDFTILTEAVYSYRGQKQKKVMLTVEQAQDQHYALVLWGPGAAWYPQLQRKKGYIWEFKYLFVQCNYTLENLELHTTPWSSCECLFDDDIRAITFKAKFQKSAPSFVKISDLATHLEDKCSGVVLIKAQISELAFPITASQKIALNAHSSLKSIFSSLPNIVYTGCAKCGLELETDENRIYKQCFSCLPFTMKKIYYRPALMTAIDGRHDVCIRVESKLIEKILLNISADCLNRVIVPSSEITYGMVVADLFHSLLAVSAEPCVLKIQSLFVLDENSYPLQQDFSLLDFYPDIVKHGANARL |
| – | binds | binds | – | – | – | C20ORF196 (protein, UniProt Q8IYI0 1-205) MAARDATSGSLSEESSALDLPSACDIRDYVLQGPSQEANSEAFSSLEFHSFPYSSDVDPDTSNLNIEQNNSWTAENFWLDPAVKGQSEKEEDDGLRKSLDRFYEMFGHPQPGSANSLSASVCKCLSQKITQLRGQESQKYALRSFQMARVIFNRDGCSVLQRHSRDTHFYPLEEGSTSLDDEKPNPGLSKDITHFLLQQNVMKDL |
| – | no binding | binds | no binding | – | – | POLD3 (protein, UniProt Q15054 1-466) MADQLYLENIDEFVTDQNKIVTYKWLSYTLGVHVNQAKQMLYDYVERKRKENSGAQLHVTYLVSGSLIQNGHSCHKVAVVREDKLEAVKSKLAVTASIHVYSIQKAMLKDSGPLFNTDYDILKSNLQNCSKFSAIQCAAAVPRAPAESSSSSKKFEQSHLHMSSETQANNELTTNGHGPPASKQVSQQPKGIMGMFASKAAAKTQETNKETKTEAKEVTNASAAGNKAPGKGNMMSNFFGKAAMNKFKVNLDSEQAVKEEKIVEQPTVSVTEPKLATPAGLKKSSKKAEPVKVLQKEKKRGKRVALSDDETKETENMRKKRRRIKLPESDSSEDEVFPDSPGAYEAESPSPPPPPSPPLEPVPKTEPEPPSVKSSSGENKRKRKRVLKSKTYLDGEGCIVTEKVYESESCTDSEEELNMKTSSVHRPPAMTVKKEPREERKGPKKGTAALGKANRQVSITGFFQRK |
| binds | – | – | – | – | binds | C20ORF196 (recombinant) (protein, UniProt Q8IYI0 1-205) MAARDATSGSLSEESSALDLPSACDIRDYVLQGPSQEANSEAFSSLEFHSFPYSSDVDPDTSNLNIEQNNSWTAENFWLDPAVKGQSEKEEDDGLRKSLDRFYEMFGHPQPGSANSLSASVCKCLSQKITQLRGQESQKYALRSFQMARVIFNRDGCSVLQRHSRDTHFYPLEEGSTSLDDEKPNPGLSKDITHFLLQQNVMKDL |
